Laboratory results: the supplement of paper PMC8183993
Structures can show the parent of a compound that is named as a salt. ± gives the standard deviation of the averaged measurements. Whole data set: some 3,100 compounds, median “mean cytoplasmic OPP incorporation (global translation) relative to DMSO” near 100, cut for the lowest 2% near 56. The list shows a part of the results.

What follows are compounds tested on U2OS (assay: mean cytoplasmic OPP incorporation (global translation) relative to DMSO (% of DMSO); higher = more protein synthesis). Conditions: 10 µM; 24 h.
Protocol: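 Primary image-based screen in U2OS cells: compounds at 10 uM for 24 h, then a 1 h o-propargyl-puromycin (OPP) pulse, click labelling, and high-throughput microscopy. Mean cytoplasmic OPP intensity and nuclei count were normalised to DMSO wells within each plate (DMSO = 100) and averaged over triplicate plates.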

| SMILES | mean cytoplasmic OPP incorporation |
| --- | --- |
| COc1ccccc1N1CCN(CCCCN2C(=O)c3ccccc3C2=O)CC1 [NAN-190 hydrobromide] | 102 |
| CN1[C@@H]2CC[C@H]1C[C@@H](OC(=O)c1c[nH]c3ccccc13)C2 [Tropisetron HCl] | 96.9 |
| CN1[C@@H]2CC[C@H]1C[C@@H](OC(=O)c1c[nH]c3ccccc13)C2 [Tropisetron hydrochloride] | 94.8 |
| Cc1cc(=O)[nH]c(=S)[nH]1 [Methylthiouracil] | 99.5 |
| Cc1cc(I)ccc1Nc1c(C(=O)NOCC2CC2)cc(F)c(F)c1F | 97.5 |
| CC(=O)[C@H]1CC[C@H]2[C@@H]3C=CC4=CC(=O)CC[C@@]4(C)[C@@H]3CC[C@]12C [Dydrogesterone] | 110 |
| O=C(O)c1ccc(N2C(=O)C(=Cc3ccccc3)SC2=S)cc1 | 102 |
| CC[C@]1(O)C[C@H]2CN(CCc3c([nH]c4ccccc34)[C@@](C(=O)OC)(c3cc4c(cc3OC)N(C=O)[C@H]3[C@@](O)(C(=O)OC)[C@H](OC(C)=O)[C@]5(CC)C=CCN6CC[C@]43[C@@H]65)C2)C1 [Vincristine sulfate] | 93.4 |
| CC[C@]1(O)C[C@H]2CN(CCc3c([nH]c4ccccc34)[C@@](C(=O)OC)(c3cc4c(cc3OC)N(C=O)[C@H]3[C@@](O)(C(=O)OC)[C@H](OC(C)=O)[C@]5(CC)C=CCN6CC[C@]43[C@@H]65)C2)C1 [Vincristine] | 101 |
| Nc1nc(CC(=O)Nc2ccc(CCNC[C@H](O)c3ccccc3)cc2)cs1 [Mirabegron (YM178)] | 111 |
| NC[C@@H]1O[C@H](O[C@H]2[C@@H](O)[C@H](O[C@@H]3[C@@H](O)[C@H](N)C[C@H](N)[C@H]3O[C@H]3O[C@H](CO)[C@@H](O)[C@H](O)[C@H]3N)O[C@@H]2CO)[C@H](N)[C@@H](O)[C@@H]1O [Paromomycin sulfate] | 105 |
| COc1ccccc1OCC(O)CO (stereo not given) [Guaifenesin] | 94.9 |
| CCOc1cc2ncc(C#N)c(Nc3ccc(F)c(Cl)c3)c2cc1NC(=O)/C=C/CN(C)C [Pelitinib (EKB-569)] | 84.4 |
| Oc1c(Cl)cc(Cl)c(Cl)c1Cc1c(O)c(Cl)cc(Cl)c1Cl [Hexachlorophene] | 107 ± 3.6 |
| Cc1c(N(C)C)c(=O)n(-c2ccccc2)n1C [Amidopyrine] | 105 |
| C=C1C(=O)[C@]23[C@H](O)[C@H]1CC[C@H]2[C@@]12CO[C@]3(O)[C@@H](O)[C@@H]1C(C)(C)CC[C@@H]2O [Oridonin (Isodonol)] | 78.2 |
| NC(=O)c1ccc2[nH]ccc2c1 | 96.1 |
| Oc1ccc(/C=C/c2cc(O)cc(O)c2)cc1 [Resveratrol] | 96.4 ± 5.4 |
| CCOC(=O)C1=C(COCCN)NC(C)=C(C(=O)OC)C1c1ccccc1Cl (stereo not given) [Amlodipine besylate] | 99.4 |
| CCOC(=O)C1=C(COCCN)NC(C)=C(C(=O)OC)C1c1ccccc1Cl (stereo not given) [Amlodipine] | 104 ± 3.4 |
| CCN(CC)CCNC(=O)c1c(C)[nH]c(/C=C2\C(=O)Nc3ccc(F)cc32)c1C [Sunitinib Malate (Sutent)] | 74.8 |
| COc1ccc(/C=C/C(=O)Nc2ccccc2C(=O)O)cc1OC [Tranilast] | 97.1 ± 1.6 |
| CN(C)C(=O)C(CCN1CCC(O)(c2ccc(Cl)cc2)CC1)(c1ccccc1)c1ccccc1 [Loperamide hydrochloride] | 109 ± 4.4 |

| SMILES | mean cytoplasmic OPP incorporation |
| --- | --- |
| Cc1ccccc1C(=O)Nc1ccc(C(=O)N2CCCC(O)c3cc(Cl)ccc32)c(C)c1 (stereo not given) | 107 |
| CC[N+](CC)(CC)CCOc1ccc(/C=C/c2ccccc2)cc1 | 93.2 |
| CC(C)c1cc2c(c(O)c1O)[C@@]13CCCC(C)(C)[C@@H]1C[C@@H]2OC3=O [Carnosol] | 107 |
| CC(=O)O[C@H]1CC[C@@]2(C)C(=CC[C@@H]3[C@@H]2CC[C@]2(C)C(c4cccnc4)=CC[C@@H]32)C1 [Abiraterone Acetate (CB7630)] | 97.8 |
| COc1ccccc1N1CCN(CCN2C(=O)c3ccccc3C(C)(C)C2=O)CC1 [ARC 239 dihydrochloride] | 110 |
| Nc1nc2[nH]cnc2c(=S)[nH]1 [Thioguanine] | 131 |
| O=C1c2c(O)cccc2C([C@@H]2O[C@H](CO)[C@@H](O)[C@H](O)[C@H]2O)c2cc(CO)cc(O)c21 (stereo not given in full) [Aloin (Barbaloin)] | 123 |
| CCCCc1cc2ccccc2c(OCCN(C)C)n1 [Dimethisoquin hydrochloride] | 90.4 |
| CC(C(=O)O)c1ccc2c(c1)[nH]c1ccc(Cl)cc12 (stereo not given) [Carprofen] | 108 |
| C=CCc1cccc(/C=N/NC(=O)CN2CCN(Cc3ccccc3)CC2)c1O | 89.6 |
| Cc1cccc(C)c1NC(=O)C(C)N (stereo not given) [Tocainide hydrochloride] | 107 |
| CC(NC(=O)C(Cc1ccccc1)NC(=O)OCc1ccccc1)C(=O)CF (stereo not given) | 101 |
| COc1cc(C(=O)NC(=S)Nc2cccc(NC(=O)c3ccccc3)c2)cc(OC)c1OC | 117 |
| COc1cc([S+](C)[O-])ccc1-c1nc2cccnc2[nH]1 (stereo not given) [Sulmazole] | 106 |
| NC(N)=NC(N)=Nc1cccc(Cl)c1 [m-Chlorophenylbiguanide hydrochloride] | 102 |
| C[C@H]1O[C@@H](O[C@H]2[C@@H](O)C[C@H](O[C@H]3[C@@H](O)C[C@H](O[C@H]4CC[C@@]5(C)[C@H](CC[C@@H]6[C@@H]5C[C@@H](O)[C@]5(C)[C@@H](C7=CC(=O)OC7)CC[C@]65O)C4)O[C@@H]3C)O[C@@H]2C)C[C@H](O)[C@@H]1O [Digoxin] | 19 |
| O=C(OCC(O)CO)c1ccccc1Nc1ccnc2cc(Cl)ccc12 (stereo not given) [Glafenine hydrochloride] | 107 |
| COc1cc2c(N3CCN(C(=O)Nc4ccc(OC(C)C)cc4)CC3)ncnc2cc1OCCCN1CCCCC1 [Tandutinib (MLN518)] | 109 |
| NC(=O)c1cn(Cc2c(F)cccc2F)nn1 [Rufinamide (Banzel)] | 98.7 |
| CC(C(=O)O)c1ccc(-c2ccccc2)c(F)c1 (stereo not given) [Flurbiprofen] | 98.5 ± 8.3 |
| COc1cc(N)c(Cl)cc1C(=O)OCCCN1CCCCC1 | 104 |
| COc1ccc(CCN(C)CCCN2CCc3cc(OC)c(OC)cc3CC2=O)cc1OC [Zatebradine hydrochloride] | 107 |
